According to article PMC12136788:
The list shows a part of the results.

B1: chr17:35854954:35855410:-|three_prime_utr|ENSG00000270379|control|control|control (ssRNA)
RNA: GGGAGUUCUACAGUCCGACGAUCUCAAGACUUUCGACUUGCAAAGCUGAACCCCUUGUUUAUUGCAAAGUCCAUCACCAAAGUAGGCCAAAAGAAAACGCCUGCUUUCCCACCGUGCUGCUCGAAACCACGAAAACAUAGGCCCAACAGAGGAUUGAGCAUCA
B2: chr1:24840999:24841100:+|3pUTR|ENSG00000169504|msi1|FALSE|bound_elsewhere (ssRNA)
RNA: GGGAGUUCUACAGUCCGACGAUCGCUACUCCUUCCUGUAGAGCAGAAAUUGUAUUUUGCACGAACAUGCAGUUAUUGAAGAUUAGGAUCAAGGAUAGACAAGGUAUAGUAGUUAUCUUAAAAUAUACACUCCUAAGCAGUAUUCAACAGAGGAUUGAGCAUCA
B3: chr4:57031156:57031257:-|3pUTR|ENSG00000163453|msi1|FALSE|unique (ssRNA)
RNA: GGGAGUUCUACAGUCCGACGAUCAUAACUACAUUACCUGUUCUUGCCUAAUAAGUUUCUUUUAAUCCAAUCCACUAACACUUUAGUUAUAUUCACUGGUUUUACACAGAGAAAUACAAAAUAAAGAUCACACAUCAAGACUAUCAACAGAGGAUUGAGCAUCA
B4: chr4:159352722:159352837:+|CDS|ENSG00000109756|unk|FALSE|unique (ssRNA)
RNA: GGGAGUUCUACAGUCCGACGAUCACUGUGGAUAAUUUUUCAGAUUCUGGUCACAGUGAAAUUUCUUCACGAUCCAGUAUUGUUAGCAAUUCGUCUUUUGACUCAGUGCCAGUCUCACUGCACGAUGAGAGGCGCCAGAGGCAUCAACAGAGGAUUGAGCAUCA
B5: chr14:106373662:106373964:-|CDS|ENSG00000211956|control|control|control (ssRNA)
RNA: GGGAGUUCUACAGUCCGACGAUCCAAUCAUAGUGGAAGCACCAACUACAACCCGUCCCUCAAGAGUCGAGUCACCAUAUCAGUAGACACGUCCAAGAACCAGUUCUCCCUGAAGCUGAGCUCUGUGACCGCCGCGGACACGGCCAACAGAGGAUUGAGCAUCA
B6: chr8:41262032:41262394:-|3pUTR|ENSG00000104332|msi1|FALSE|unique (ssRNA)
RNA: GGGAGUUCUACAGUCCGACGAUCGGCCGUUCUGACCUGUUGCCAGCAGAUACACAGGACAUGGAUGAAAUUCCCGUUUCCUCUAGUUUCUUCCUGUAGUACUCCUCUUUUAGAUCCUAAGUCUCUUACAAAAGCUUUGAAUACCAACAGAGGAUUGAGCAUCA

These binders were tested against MSI1 full-length (mouse, UniProt Q61474 1-362) (assay: nsRBNS (natural sequence RNA bind-n-seq); RBNS binding buffer (assumed for nsRBNS): 25 mM Tris pH 7.5, 150 mM KCl, 3 mM MgCl2, 0.01% Triton X-100, 500 ug/ml BSA, 20 U/ml SUPERase-In, 4 C; UNK is unkempt and MSI1 is Musashi-1; names of the RNAs are library labels; protein concentration not given here; high values mean tight binding).
Sequence of UniProt Q61474 (Q61474 whole entry): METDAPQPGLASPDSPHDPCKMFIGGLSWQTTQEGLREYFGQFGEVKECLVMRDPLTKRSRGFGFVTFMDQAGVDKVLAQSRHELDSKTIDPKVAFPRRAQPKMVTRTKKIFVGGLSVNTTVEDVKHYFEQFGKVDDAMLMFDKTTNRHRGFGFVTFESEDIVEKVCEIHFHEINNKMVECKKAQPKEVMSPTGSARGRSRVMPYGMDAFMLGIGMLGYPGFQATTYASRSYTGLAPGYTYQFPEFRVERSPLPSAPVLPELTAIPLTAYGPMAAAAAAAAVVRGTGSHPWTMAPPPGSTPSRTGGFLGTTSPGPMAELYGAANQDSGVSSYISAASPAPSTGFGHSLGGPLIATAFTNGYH

Binder | binding signal
B1 | 0.372 enrichment R
B2 | 5.57 enrichment R
B3 | 4.29 enrichment R
B4 | 0.234 enrichment R
B5 | 0.795 enrichment R
B6 | 1.86 enrichment R
